Measured values reported in the RNAGym collection of RNA variant scans (doi:10.1093/nar/gkz1192).
Read counts are not given, so values of variants with three or more changes are uncertain.

B1: CPEB3 Ribozyme (parent)
chain: UAACAGGGGGCCACAGCAGAAGCGUUCACGUCGCAGCCCCUGUCAGAUUCUGGUGAAUCUGCGAAUUCUGCUGUAUAUCUC

Variants of: B1
Test: self-cleavage, relative activity (ratio to wild type); higher = more cleavage; in vitro, sequencing
Procedure, shortened: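 Libraries of CPEB3 self-cleaving ribozyme mutants came from rounds of error-prone PCR and carried barcodes, which DNA sequencing matched to variants. In vitro transcription used T7 RNA polymerase at 37°C for 5 hours, with a further 15 min in DNase I before EDTA stopped the reaction; the ribozymes cleaved during both steps. The RNA was reverse transcribed with template switching and sequenced on Illumina. Relative activity is the cleaved/total read fraction of a variant divided by that of the unmutated ribozyme, averaged over three batches with at least 5 reads.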
For G10A A15C U49C, the self-cleavage was 0.36.
With G9U U26C U48C G63U A77G the self-cleavage was 0.05.
G9U C12A C44A U49C A56G U60A gave a self-cleavage of 0.06.
G9U G36A U60C showed a self-cleavage of 0.31.
G9U A28G C32U U41C A56G showed a self-cleavage of 0.21.
In the case of G9U U25A U41C U51C A56G A65G U67C, the self-cleavage is reported as 0.03.
Variant G9U A28G U49C has a self-cleavage of 0.15.
G9U U25C C39A showed a self-cleavage of 0.07.
In the case of G9U G10A U31C A56U A57G, the self-cleavage is reported as 0.
Variant G9C A35U U54C U72C has a self-cleavage of 0.08.
G10A A15U A35U A77U gave a self-cleavage of 0.22.
For G9U C12U U67C, the self-cleavage was 0.05.
Variant G10A A15U A45G U49A U72C has a self-cleavage of 0.13.
For G9U U60A A77U, the self-cleavage was 0.
Variant G9C A15G A18G G30U U51A has a self-cleavage of 0.06.
G9U A28U A47C U51C U67A U69A showed a self-cleavage of 0.04.
G9C A20G U31C A45G U58C U80A gave a self-cleavage of 0.03.
Variant G9U U41C G70A has a self-cleavage of 0.06.
Work on G9U C29U U66C U72C yielded a self-cleavage of 0.06.
For G9U G42A U49C, the self-cleavage was 0.11.
For G9U A45G A56G, the self-cleavage was 0.33.
With G9U A35G A45U A57G U60C U67C the self-cleavage was 0.05.
Variant G9U U25G A47U A56G U80A has a self-cleavage of 0.06.
Work on G9C C12U C32U yielded a self-cleavage of 0.05.
Work on G9A U67A U72A A77G U80C yielded a self-cleavage of 0.11.
With G10A A15U A18G C32U U49A U51A U74C the self-cleavage was 0.12.
G9U C11U C27G U60C U72G showed a self-cleavage of 0.04.
For G9U A28G A35G A56G U66C, the self-cleavage was 0.11.
G9U A15G A45G G52A gave a self-cleavage of 0.05.
G9U C29U A56U A57G showed a self-cleavage of 0.1.
Variant G9U C12U A13G U26C A35G C39U A65U has a self-cleavage of 0.04.
Work on G9U A21G G30U yielded a self-cleavage of 0.08.
Variant G9U A45G A57G has a self-cleavage of 0.07.
For G9U A20U A56G, the self-cleavage was 0.06.
In the case of G10A A15G U41A U67C, the self-cleavage is reported as 0.03.
For G9U C40U U51C G52A U67C U69C U72G, the self-cleavage was 0.03.
With G9U G24A C62U U72C U78A the self-cleavage was 0.04.
Variant G9U C38A A47U A56C has a self-cleavage of 0.06.
For G9U A15G U25C A28U U48C, the self-cleavage was 0.22.
With G9U U26C U43C A47G G61A A64U the self-cleavage was 0.05.
With G9U G30C U69C the self-cleavage was 0.08.
In the case of G9U C11U A18G, the self-cleavage is reported as 0.35.
G9C A35U U67C U69A showed a self-cleavage of 0.11.
In the case of G9U A21G A28G U67G U76G, the self-cleavage is reported as 0.05.
In the case of G9U U58A U60C, the self-cleavage is reported as 0.08.
In the case of G10A A13U A18G U41C, the self-cleavage is reported as 0.09.
Variant G9U G30U U54A U58C has a self-cleavage of 0.06.
G9U A13U U26A gave a self-cleavage of 0.16.
G9U C11U A20G U51A A64G U69C gave a self-cleavage of 0.13.
Work on G9C A21U A28G A45G U66C yielded a self-cleavage of 0.04.
In the case of G9U A35U A56G A75U U80C, the self-cleavage is reported as 0.1.
Work on G9U A13U A21U yielded a self-cleavage of 0.1.
G9C A18G U26C U43A A45U U67A C81U gave a self-cleavage of 0.26.
For G10A A13U C23U G36A U41C U43G, the self-cleavage was 0.04.
In the case of G10A A13U U26G A35G U43C A47G U49A, the self-cleavage is reported as 0.06.
For G9U U49C U66C, the self-cleavage was 0.08.
For G9C C12U A64U U80C, the self-cleavage was 0.11.
Variant G9U A20U C27U C62U has a self-cleavage of 0.04.
For G9U A65G U74C U78C, the self-cleavage was 0.13.
G9U C29G U41C U48C U69C U72C showed a self-cleavage of 0.04.
G9U U41C G52C showed a self-cleavage of 0.36.
With G9U A15G U26C A56G A65G U66C U78A the self-cleavage was 0.04.
With G9U A20U U26C the self-cleavage was 0.19.
G9U A57G U69A showed a self-cleavage of 0.05.
Variant G9U A28G G63U has a self-cleavage of 0.16.
G10A A15U A20U U41C showed a self-cleavage of 0.07.
For G9A U67A U72A A77G, the self-cleavage was 0.06.
G9U G24U U60C showed a self-cleavage of 0.11.
In the case of G9U U43C G46U U69A, the self-cleavage is reported as 0.04.
Work on G10A A18G A20G U67C U80C yielded a self-cleavage of 0.06.
G9A U60A U76C gave a self-cleavage of 0.4.
Work on G9U C27U U60A yielded a self-cleavage of 0.05.
Work on G9U A18G U51C A57U U80A yielded a self-cleavage of 0.17.
Variant G9C U41A G46A has a self-cleavage of 0.19.
Variant G9U A56G U80C has a self-cleavage of 0.14.
For G9U A28G A57G, the self-cleavage was 0.06.
For G9U U49C A64G, the self-cleavage was 0.14.
G9U U48C U58C U76G showed a self-cleavage of 0.06.
G9U U43C A64G gave a self-cleavage of 0.06.
With G9U U41C U43C U67A the self-cleavage was 0.15.
G9C A15U U26A U41A U43C G73C C81U gave a self-cleavage of 0.06.
G9A U67C U80C gave a self-cleavage of 0.2.
With G9C A20G C39U A64G U69C U72A the self-cleavage was 0.1.
Variant G10A A13U A18G C29U U54G U69C A75G has a self-cleavage of 0.05.
